This assay deals with NCI-H322M lung. The assay can be described thus: NCI tumour cell line growth inhibition, 48 h.

The values below come from PubChem BioAssay (NCI).

Structures are written as SMILES.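 In this assay, cells in 96-well plates receive the compound at five concentrations for 48 hours. Endpoints are linearly interpolated between the surrounding concentrations. At the GI50, growth is halved. Definition used: TGI = concentration required for complete inhibition of growth.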 Some results are limits rather than exact numbers.

`CC1(c2nc3ccccc3[nH]2)CCC(C(=O)O)C(C)(C)O1` (configuration not stated): the TGI was more than 100 µM.
The same measure, in the same setting: for `c1ccc(CCc2cccnc2)nc1` the value was more than 100 µM.
On the same count and under the same terms, for `CC12C=CC(=O)C=C1CCC1C3CCC(O)(C(=O)CO)C3(C)CC(O)C12F` (configuration not stated) the value was more than 100 µM; for `CC(=O)OCCOCNC(=S)N/N=C/c1cc(Br)cs1`, more than 100 µM; for `O=S(=O)(c1cccc(N=C=S)c1)c1cccc(N=C=S)c1`, more than 100 µM.
`N#CCCN1C/C(=C/c2ccc(Cl)cc2)C(=O)/C(=C/c2ccc(Cl)cc2)C1`: the GI50 is 3.44 µM and the TGI was 10.7 µM.
With `O=C(c1nc2ccccc2[nH]c1=O)C(O)c1ccccc1` (configuration not stated), the TGI is more than 100 µM.
Same read-out and setting: for `CCC(=O)C(CCN1CCC2(CCCc3ccccc32)CC1)(c1ccccc1)c1ccccc1` the value was 22.5 µM.
As to `COC(=O)c1cc2c(cc1Cl)SC1=NN(C)C(N(C)C)N1S2(=O)=O` (configuration not stated), the GI50 is more than 100 µM and the TGI was more than 100 µM.
Consider `CN(CCNCc1ccccn1)CCNCc1ccccn1`, for which the GI50 was 1.79 µM and the TGI was 4.28 µM.
As for `O=C(CC1(O)C(=O)N(Cc2ccccc2)c2ccccc21)c1ccc(C(=O)NCC2CCC3(CC2)OOC2(CCCCC2)OO3)cc1` (configuration not stated), the GI50 was 8.65 µM and the TGI is more than 100 µM.
Turning to `CCOP1(=O)CC(C)=C(Cl)C(O)C1` (configuration not stated), the TGI is more than 100 µM.
In the case of `Nc1nc(Nc2ccccc2SSc2ccccc2Nc2nc(N)nc(C(Cl)(Cl)Cl)n2)nc(C(Cl)(Cl)Cl)n1`, the GI50 is 19 µM and the TGI was more than 100 µM.
For `C[C@]12CC[C@@H]3c4cc(OC(F)F)c(OS(N)(=O)=O)cc4CC[C@H]3[C@@H]1CC[C@@H]2O`, in that order: 0.868 µM and 29.7 µM.
Regarding `COc1ccc(/C=C(\C#N)n2nnc3c(F)cccc32)cc1`, the GI50 is 0.874 µM and the TGI was more than 100 µM.
`Nc1ccc2c(c1)nc1n2C(c2c(F)cccc2F)SC1` (configuration not stated) registered a TGI of more than 100 µM.
On to `c1ccc2cc(-c3n(Cc4ccc5ccccc5n4)c4ccccc4[n+]3Cc3ccc4ccccc4n3)ccc2c1`, for which the GI50 is 0.559 µM and the TGI stood at 1.87 µM.
With `O=C1Nc2ccccc2N=CC1NC(=O)C(c1ccccc1)c1ccccc1` (configuration not stated), the TGI was more than 100 µM.
The same measure, in the same setting: for `Cc1ccccc1NC(=O)C(=O)C(C#N)c1ccccc1C` (configuration not stated) the value was more than 100 µM; for `NS(=O)(=O)c1nnc(NS(=O)(=O)C(F)(F)F)s1`, more than 100 µM; for `COc1c(=O)cc2cc[nH]c3ccn(C)c1c23`, more than 100 µM.
Regarding `CCCCCCNC(=O)Oc1ccc(/C(=C(\C)c2ccc(Cl)cc2)c2ccc(OCCN3CCCCC3)cc2)cc1`, the GI50 was 4.46 µM and the TGI turned out to be 11.5 µM.
`N#Cc1c2c(c(N)oc1=O)C(c1ccccc1)CC(=O)N2` (configuration not stated): the TGI is more than 100 µM.
In turn, `C=C1CC(c2ccc(OCCCN3C(=O)c4ccccc4C3=O)cc2)OC1=O` (configuration not stated) returned a TGI of 30.7 µM.
Still for that read-out and setting: for `O=C1c2sccc2-c2cccc3cccc1c23` (tested in a mixture with another compound) the value was 8.3 µM.
On to `CCc1cccc(C)c1NC(=O)c1sc2nc3c(cc2c1N)C(=O)CCC3`, for which the GI50 was 0.676 µM and the TGI is more than 100 µM.
Regarding `O=c1c2cc(S(=O)(=O)O)ccc2nc(COc2ccc(Oc3ccc(Cl)cc3Cl)cc2)n1-c1ccc(Oc2ccc(Cl)cc2)cc1Cl`, the TGI is more than 100 µM.
Turning to `c1ccc2c(c1)Nc1ccncc1S2`, the GI50 is 19.1 µM and the TGI was 83.8 µM.
In the case of `Cc1cc(C)nc(NS(=O)(=O)c2ccc(NC(=O)c3cccc4c(Nc5ccc(S(=O)(=O)Nc6cc(C)on6)cc5)c5ccccc5nc34)cc2)n1`, the TGI was determined as 37.7 µM.
In turn, `N#Cc1nc(-c2ccco2)oc1N` gave a TGI of more than 10 µM.
Regarding `COC1=C(OC)C(=O)C(SC/C=C(\C)CCCC(C)CCCC(C)CCCC(C)C)=CC1=O` (configuration not stated), the GI50 was 6.24 µM and the TGI was more than 100 µM.
`Cc1ccc(-c2nc(N/N=C/C=C/c3ccccc3)c3ccccc3n2)cc1`: the TGI was 64 µM.
Same read-out and setting: for `NNC(=O)c1c(-c2cccnc2)cnc2ccccc12` the value was more than 100 µM.
As for `Cc1cc(C)nc(SC2=C(Nc3cc(Cl)ccc3O)C(=O)N(Cc3ccccc3)C2=O)n1`, the GI50 is 98.1 µM and the TGI was more than 160 µM.
As for `Fc1ccc(N2C(=S)SC(=Nc3ccccc3)C2=Nc2ccccc2)cc1`, the TGI is more than 100 µM.
Take `COc1ccc(/C=N/n2c(C)n[nH]c2=O)c(OC)c1`: the TGI is more than 100 µM.
As to `C/C(=N/N=C(\[O-])c1ccncc1)C(F)(F)F.C/C(=N\N=C(/[O-])c1ccncc1)C(F)(F)F.[Ni+2]`, the GI50 was more than 1 µM and the TGI was more than 1 µM.
Regarding `O=C(CC1SC(=Nc2ccccc2Cl)NC1=O)Nc1ccc(Cl)cc1Cl` (configuration not stated), the TGI was more than 100 µM.
`CSc1nc2sc3c(c2c(=O)n1-c1ccc(C(C)C)cc1)CCC(=O)C3`: the GI50 was 3.03 µM and the TGI was more than 100 µM.
For `COc1ncnc(NS(=O)(=O)c2ccc(N=C3C(=O)N(CN4CCN(c5c(F)cc6c(=O)c(C(=O)O)cn(C7CC7)c6c5OC)CC4C)c4ccc(Br)cc43)cc2)c1OC` (configuration not stated), in that order: 4.77 µM and 25.1 µM.
Compound `Cc1nc2ccc(C(F)(F)F)cc2nc1NCc1ccc(Cl)c(Cl)c1` returned a TGI of 29.8 µM.
Same read-out and setting: as for `O=C(O)CCC(=O)c1ccc2sc3ccccc3c2c1`, the figure is more than 100 µM; as for `[N-]=[N+]=NI1OC(=O)c2ccccc21`, more than 100 µM; as for `CCN1CCC(O)(/C=C/c2ccccc2C)C(C(=O)/C=C/c2ccccc2C)C1` (configuration not stated), 12.5 µM.
As to `COc1cc2c(cc1OCCCCN1CCN(C(=S)SCCC(C#N)(c3ccccc3)c3ccccc3)CC1)N=C[C@@H]1CCCN1C2=O`, the GI50 was 1.4 µM and the TGI was 3.19 µM.
The compound `Oc1ccc2cc(Br)ccc2c1-c1c(O)ccc2ccc(Br)cc12` showed a TGI of 26.4 µM.
Still for that read-out and setting: for `Cc1ccc(NC(=O)CC2C(=O)Nc3ccccc3S2(=O)=O)c(C)c1` (configuration not stated) the value was 68.4 µM; for `O=C(O)Cc1cccnc1`, more than 100 µM; for `CCCCCCCC1(N=[N+]=[N-])C(=O)Nc2ccccc2C1=O` (configuration not stated), 31.7 µM.
Same read-out and setting: for `N#Cc1ccc(C=NC23CC4CC(CC(C4)C2)C3)cc1` the value was more than 100 µM.
In turn, `CCN(CC)c1ccc2c(c1)Oc1ccc(N(CC)CC)cc1C21Oc2ccccc2-c2c1c1ccccc1n2CC` (configuration not stated) gave a TGI of more than 100 µM.
Same read-out and setting: for `CC(C)C(C(=O)O)N1C(=O)c2ccccc2C1=O` (configuration not stated) the value was more than 100 µM.
Same read-out and setting: as for `COC(=O)/C=C(\CC(=O)OC)n1nnnc1[C@@H]1C[C@H](COC(c2ccccc2)(c2ccccc2)c2ccccc2)[C@H]2OC(C)(C)O[C@H]21`, the figure is more than 100 µM.
On the same count and under the same terms, for `CC(N)Cc1ccc(Cl)c(Cl)c1` (configuration not stated) the value was 97.5 µM; for `Cc1ccc(C)c(N2C(=O)C(=O)C(c3nc4ccccc4s3)/C(=N/NC(=O)NN)C2=O)c1` (configuration not stated), more than 100 µM.
With `N#CC1=C(/N=C/c2ccccc2)Oc2c(ccc3ccccc23)C1c1ccccc1` (configuration not stated), the GI50 is 2.18 µM and the TGI was more than 100 µM.
In the case of `Nc1ncnc2oc(C3OC(COC(=O)c4ccccc4)C(OC(=O)c4ccccc4)C3OC(=O)c3ccccc3)nc12` (configuration not stated), the TGI was more than 100 µM.
Same read-out and setting: as for `CCOC(=O)c1sc2nc(SC)nc3c2c1NCN3c1ccc2c(c1)OCO2`, the figure is more than 100 µM; as for `COc1ccc(N2C(=O)/C(=C\c3cc(OC)c(OC)c(OC)c3)SC2c2ccccc2)cc1` (configuration not stated), more than 100 µM.
In the case of `CC(C)(O)CNc1nc(Nc2ccnc(C(F)(F)F)c2)nc(-c2cccc(C(F)(F)F)n2)n1`, the GI50 was 23 µM and the TGI was 69.1 µM.
Consider `O=C1CSC2(CC(/C=C/c3cccc([N+](=O)[O-])c3)=NN2c2cccc(S(=O)(=O)O)c2)N1c1nc2ccccc2s1` (configuration not stated), for which the TGI is more than 100 µM.
Still for that read-out and setting: for `OC(C#Cc1ccccc1)(c1ccccc1)c1ccccc1` the value was 75 µM.
For the compound `O=C(/C=C/c1cccc(O)c1)c1cccc(-n2cc(-c3ccccc3)[nH]c2=O)c1`, the GI50 was 4.97 µM and the TGI stood at 14.8 µM.
For `N#CCN1CCn2c1nsc2=S`, in that order: more than 100 µM and more than 100 µM.
For `C[N+](C)(C)c1ncnc2c1ncn2C1CC(O)C(CO)O1` (configuration not stated), the TGI was more than 100 µM.
On the same count and under the same terms, for `O=CNCNCCO` the value was more than 100 µM.
As for `Oc1cccc2ccc(N/N=C/c3cc(CN4CCOCC4)c(O)c4ncccc34)nc12`, the GI50 is 0.108 µM and the TGI was 5.19 µM.
Turning to `COC(=O)C(CCSC)NC(=O)CNC(=O)CSc1nnc(COc2ccc(Cl)cc2)n1-c1ccccc1` (configuration not stated), the TGI worked out at 32.5 µM.
Same read-out and setting: for `COCCNC(=O)C1C(=O)C(=O)N(CCOC)C1=O` (configuration not stated) the value was more than 100 µM; for `NC(=O)C(=O)C1CCC2=C(Sc3ccccc3N2)C1=O` (configuration not stated), more than 100 µM.
Take `C/C(=C\c1cnc(C)s1)[C@@H]1C[C@@H]2O[C@@H]2CCC[C@H](C)[C@H](O)[C@@H](C)C(=O)C(C)(C)[C@@H](O)CC(=O)O1`: the GI50 was less than 0.01 µM and the TGI was more than 100 µM.
`Oc1[nH]c2ccccc2c1N=NC(=S)Nc1ccccc1Cl` had a TGI of 42.5 µM.
Compound `Nc1c([N+](=O)[O-])nc(Cl)c2nncn12` returned a TGI of more than 100 µM.
`O=c1[nH]c(=S)nc2nc3c4ccc[nH]c4c4ccccc4c3nc12`: the TGI was more than 100 µM.
Still for that read-out and setting: as for `C[C@]12C[C@@H](OC(=O)[C@]1(C)O)[C@@H]([C@]1(O)CC[C@H]3[C@@H]4C[C@H]5O[C@]56C[C@H]5O[C@H]5C(=O)[C@]6(C)[C@H]4CC[C@@]31C)C2`, the figure is more than 50 µM; as for `CCOC(=O)/C(C#N)=C(O)/C(=C\c1ccc(Br)cc1)NC(=O)c1ccccc1`, more than 100 µM.
Same read-out and setting: as for `CCOC(=O)c1nc2cc(C(F)(F)F)ccc2nc1Nc1ccc(OC)cc1`, the figure is more than 100 µM; as for `OCCNC1c2cc(Cl)ccc2-c2c(Cl)cc(Cl)cc21` (configuration not stated), more than 100 µM.
In the case of `COC(=O)[C@H]1CCCN1C(=O)[C@H]1CCCN1C(=O)[C@@H](Cc1c[nH]c2ccccc12)NC(=S)Nc1cc(C(F)(F)F)cc(C(F)(F)F)c1`, the GI50 was 2.47 µM and the TGI came out at 6.84 µM.
Take `Cc1ccc(NC(=O)c2cc(S(=O)(=O)Nc3n[nH]c(=O)[nH]3)c(SSc3cc(Cl)c(C(=O)Nc4ccc(C)cc4)cc3S(=O)(=O)Nc3n[nH]c(=O)[nH]3)cc2Cl)cc1`: the TGI was more than 100 µM.
Take `COc1ccc(NC(=O)C2CCC(CNS(=O)(=O)c3ccccc3)CC2)cc1OC` (configuration not stated): the GI50 is more than 100 µM and the TGI was more than 100 µM.
Compound `O=[N+]([O-])c1cccc2nc3ccccc3c(NCCCNc3c4ccccc4nc4cccc([N+](=O)[O-])c34)c12` yielded a TGI of 0.293 µM.
